Assay results from the supplement of paper PMC10185492.
Some of the results follow. These are enrichments in a pooled selection; single values are uncertain.

These substances were tested on SARS-CoV-2 3CLpro (nsp5) (assay: substrate phage enrichment score (protease-eluted vs HEPES control, +1 offset) (ratio); higher = better cleaved substrate). Conditions: selection round: 3; protease elution time: 0.5 h.
Procedure: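 Random heptapeptide substrate phage display (M13 pIII fusion, heptapeptide between an N-terminal biotinylated AviTag GLNDIFEAQKIEWHE and pIII; phages immobilised on streptavidin) eluted by cleavage with 50 nM protease in 20 mM HEPES at 37 °C. Selected phages were NGS sequenced, and the enrichment score is (reads in protease sample + 1)/(reads in HEPES blank-selection control + 1).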

| Substance | substrate phage enrichment score |
| --- | --- |
| ELYFQGG | 0.977 |
| GCTLPRS | 17 |
| INSGPLR | 30 |
| SPAHHHH | 1 |
| MYFQGGS | 1.29 |
| NKPVRLH | > 28 |
| KKQSIMG | > 21 |
| EELREVH | 1 |
| VAQLEAR | 0.923 |
| SDAAHHH | 1.86 |
| NYVTRLQ | > 48 |
| AGAAAHH | 0.667 |
| VRCCCPV | 0.211 |
| KTGDGCV | 0.75 |
| AKCQTPR | > 32 |
| MNHGVLQ | > 30 |
| DDKSLLH | 2.53 |
| HMSNHHH | > 21 |
| GIYDMRD | 1 |
| RDAAHHH | 0.583 |
| WCTVSDR | > 44 |
| HRHIGEQ | 11.3 |
| SEQLSAP | 0.957 |
| CERFQGY | 1.43 |

| Substance | substrate phage enrichment score |
| --- | --- |
| STRVLRC | 8.33 |
| PRTQMSR | 11.5 |
| ASQAALQ | > 30 |
| NKAAHHH | 1.37 |
| DCWTDRD | 0.929 |
| AAAHNHH | 1.18 |
| ARERVPG | > 36 |
| HQPIHAP | > 21 |
| ARCVLQY | > 22 |
| AIRFEGD | 0.667 |
| AGHVNLQ | 29.5 |
| MTSDLVG | 7.33 |
| AGVSKLH | > 48 |
| KPSSLQS | 34.8 |
| DKVNESR | 2.73 |
| RSHSTVQ | > 35 |
| TGGSAAA | 0.583 |
| LYYQGGS | 1.2 |
| GRAAHHH | 1.3 |
| VMFQADF | > 28 |
| FKPLAHK | 4.17 |
| RHLTGGQ | 1.78 |
| AARLQCS | > 67 |
| HHHGELR | 33.7 |

| Substance | substrate phage enrichment score |
| --- | --- |
| TYLQGGS | 74.5 |
| TDHDRQY | 4.83 |
| NSFTTLQ | > 22 |
| WCHQEFP | > 25 |
| VLSPQTK | > 30 |
| PQVEQPY | 6.33 |
| NKPDLIW | > 22 |
| HTKPAAR | 12 |
| HKRCQFW | 3.86 |
| HGNSAGS | 1.82 |
| VSRDPAP | > 51 |
| HFSEFGR | > 53 |
| PQLKSLD | 1.62 |
| PGSQMHC | 1.76 |
| ESRGMPN | 4.4 |
| PGQTCRR | 0.906 |
| VSFQGGS | 2.57 |
| DRAGTDH | 0.737 |
| KGGSAAA | 1.24 |
| GQAAHHH | 1.27 |
| RAKCTYH | > 25 |
| SKLQGAN | 18.5 |
| CVPTAKG | 1.9 |
| IKHELSC | 2 |

| Substance | substrate phage enrichment score |
| --- | --- |
| GAKVQLQ | > 25 |
| CSKETRG | > 22 |
| WGAPTSK | > 24 |
| QGRSSTT | 1.3 |
| SKLPVSS | > 26 |
| RKEAIAP | > 26 |
| ERNCRLQ | > 33 |
| IAAAHHH | 1.02 |
| RCRHLEA | 3 |
| TDSTSAN | > 30 |
| APDRASC | > 26 |
| NAVLHGQ | > 24 |
| LPNFQGG | 13.5 |
| SKKSSHE | 1.18 |
| TNLSNSL | 4.83 |
| AKLTPEH | 0.619 |
| ADAHHHH | 0.533 |
| RLPTVFE | 1.96 |
| QNLMCHY | 4.57 |
| SQGGSAA | 0.73 |
| ARGVHLQ | > 52 |
| HGTNVFR | > 31 |
| ASNPASL | 6.33 |
| VANTYGC | 26 |

| Substance | substrate phage enrichment score |
| --- | --- |
| RTLSPLT | > 22 |
| AGTPRAK | > 23 |
| SDRVWLQ | > 31 |
| RDIRHSR | > 29 |
| PQVIEQH | 2.19 |
| EMYFQGG | 0.739 |
| LISDNLP | > 31 |
| NATQPTR | 3.5 |
| SIEHFQG | 7 |
| WPPVQLQ | > 94 |
| GGAAHHH | 0.75 |
| VPDKSSR | 6.67 |
| ESASILQ | > 134 |
| LVTPWSH | 1.75 |
| TPTAASQ | > 28 |
| FDQKKAP | 1.5 |
| AECCGMP | > 32 |
| CSPRSRP | > 35 |
| SGNSRLN | > 36 |
| ISAPEAH | 1.5 |
| AGGCVRD | 0.412 |
